PubChem BioAssay AID463254 (National Center for Advancing Translational Sciences (NCATS), 2010)
About 40 (0.01%) of roughly 330,000 compounds were called active. Inconclusive means that the source gave no clear call. Such entries were picked first, then a sample of the others. Calls come from the whole dose curve; as a rule, active = well fitted inhibition curve with a large enough effect; inconclusive = small, poorly fitted or top-dose-only effect, or effect the other way; inactive = flat fitted curve, though single readings scatter. Where the call is inconclusive, the potency comes from a doubtful curve fit.

Target: Ubiquitin carboxyl-terminal hydrolase 2 (Homo sapiens) (UniProt O75604)
Chain of UniProt O75604 (O75604 whole entry, looked up): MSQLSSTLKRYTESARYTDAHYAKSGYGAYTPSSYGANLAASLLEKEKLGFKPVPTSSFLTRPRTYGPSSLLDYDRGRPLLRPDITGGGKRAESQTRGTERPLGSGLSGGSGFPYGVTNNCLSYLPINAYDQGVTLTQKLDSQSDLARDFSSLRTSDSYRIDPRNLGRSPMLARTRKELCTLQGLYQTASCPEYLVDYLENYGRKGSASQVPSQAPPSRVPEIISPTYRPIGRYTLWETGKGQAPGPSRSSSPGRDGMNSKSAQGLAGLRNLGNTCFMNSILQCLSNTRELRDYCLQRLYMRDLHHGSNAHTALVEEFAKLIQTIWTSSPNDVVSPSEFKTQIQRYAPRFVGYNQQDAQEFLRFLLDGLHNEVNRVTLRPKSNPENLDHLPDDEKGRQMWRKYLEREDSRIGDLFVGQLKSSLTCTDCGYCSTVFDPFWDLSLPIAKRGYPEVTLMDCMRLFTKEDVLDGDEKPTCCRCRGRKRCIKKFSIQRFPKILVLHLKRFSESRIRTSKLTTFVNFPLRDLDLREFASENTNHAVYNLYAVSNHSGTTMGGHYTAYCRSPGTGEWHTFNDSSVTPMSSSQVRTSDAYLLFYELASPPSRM
Assay: qHTS Assay for Inhibitors of Ubiquitin-specific Protease USP2a Using CHOP2 as the Reporter
Conditions: USP2 core, Ub-CHOP2 coupled fluorogenic reporter, 485/531; series mostly up to 38.3 µM
Procedure, shortened: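 Deubiquitinase activity read as fluorescence (485/531 nm) after Ub-CHOP2 cleavage activates the enterokinase reporter on its substrate; USP2 core 10nM, Ub-CHOP2 and substrate 25nM each, 30min compound preincubation then 60min RT; data normalized to NEM, curves fitted.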
Potency is the fitted concentration of half-maximal effect; tags give direction and shape of the fitted curve or compound fluorescence and quenching.

| SMILES | Potency |
| --- | --- |
| O=C1N=c2ccccc2=C1c1sc(Nc2ccc(O)cc2)nc1O | inconclusive: 28.2 µM [falling, single point] |
| CCOc1cc(/C=C/c2nc3cc(C)c(C)cc3s2)ccc1OCC(=O)N1CCOCC1 | inconclusive: 22.4 µM [falling, single point] |
| Cc1cc[n+](-c2[nH]c(=O)sc2/C=N/NC([S-])=Nc2ccccc2)cc1 | inconclusive: 14.1 µM [fluorescent, single point] |
| CSc1cccc(NC(=O)c2ccccc2N(C)S(C)(=O)=O)c1 | inconclusive: 28.2 µM [falling, single point] |
| O=C(CSc1cccc2cccnc12)N/N=C/c1cccc(O)c1 | inactive |
| Cc1nn(C)cc1N1C(=O)c2cccc3c(N)ccc(c23)C1=O | inconclusive: 11.2 µM [fluorescent, partial curve] |
| N#Cc1sc2nc(-c3cccs3)cc(-c3ccc(Cl)cc3)c2c1N | inconclusive: 3.55 µM [fluorescent, single point] |
| C#CCOCCOCCOCCNc1nc(N2CCN(C(=O)CCCCCCCCCCNC(=O)[C@@H](CCC(=O)O)n3cc(CCCCCN)nn3)CC2)nc(N2CCN(C(=O)CCCCCCCCCCNC(=O)[C@H]([C@@H](C)CC)n3cc(CCCCCN)nn3)CC2)n1 | inconclusive: 11.2 µM [falling, partial curve] |
| CN(c1ccc(C(=O)N2CCN(c3ccc(F)cc3)CC2)cc1)S(C)(=O)=O | inactive |
| CCOC(=O)c1cccc(COC(=O)c2cccc(-c3nnc(-c4ccccc4)o3)c2)c1 | inactive |
| O=C(NC12CC3CC(CC(C3)C1)C2)C1=COCCO1 | inconclusive: 28.2 µM [falling, single point] |
| Cc1nn(CC(=O)Nc2cccc(S(N)(=O)=O)c2)c(C)c1[N+](=O)[O-] | inconclusive: 20 µM [falling, single point] |
| Cc1ccc(CN2C(=O)N/C(=C\c3cccn3-c3cccc(C(=O)O)c3)C2=O)cc1 | inconclusive: 28.2 µM [falling, single point] |
| CCO[C@H]1OC(C(=O)N2CCCCCCC2)=C[C@@H](c2ccc(C(F)(F)F)cc2)[C@@H]1CCCO | inconclusive: 22.4 µM [falling, single point] |
| CCCCCc1ccc(OCCOCCn2c[n+](C)c3ccccc32)c(CCCCC)c1 | inconclusive: 11.2 µM [falling, single point] |
| CC(=O)c1cccc2c(O)c(C3=Nc4ccccc4C3=O)[nH]c12 | inactive |
| CN1/C(=C\C=C(/C#N)C(=O)Nc2ccc(Cl)cc2)C(C)(C)c2ccccc21 | inconclusive: 28.2 µM [fluorescent, single point] |
| O=C(NCCc1ccc(F)cc1)c1cccc2c1C(=O)c1ccc(N3CCC(Cc4ccccc4)CC3)cc1S2(=O)=O | inconclusive: 10 µM [fluorescent, single point] |
| Cc1cc(/C=C2\C(=N)N3N=C(c4ccco4)SC3=NC2=O)c(C)n1Cc1ccccc1 | inconclusive: 10 µM [falling, single point] |
| CCn1c(=O)c2cc(C(=O)Nc3cccc(C(C)=O)c3)sc2c2ccccc21 | inconclusive: 28.2 µM [fluorescent, single point] |
| O=C(c1ccc(CS(=O)(=O)c2ccc(Br)cc2)o1)N1CCCC1 | inconclusive: 5.01 µM [falling, single point] |
| CCOC(=O)CSc1nc2cc(C)ccc2cc1C#N | inactive |

| SMILES | Potency |
| --- | --- |
| CNC(=O)C(=O)Nc1c(C)cc(C)cc1C | inactive |
| CCC(C(=O)NCc1ccccc1OC)n1nc(C)n2c(cc3occc32)c1=O (stereo not given) | inconclusive: 5.01 µM [falling, single point] |
| Nc1nnc(SCc2ccccc2)n1-c1ccccc1 | inactive |
| CCOc1ccc(-c2ccc(/C=C3/C(=N)N4C(C)=CSC4=NC3=O)o2)c([N+](=O)[O-])c1 | inconclusive: 20 µM [falling, single point] |
| CCOc1ccc2c(c1)/C(=C(\C(Cl)=C(Cl)Cl)[N+](=O)[O-])N2 | inconclusive: 11.2 µM [fluorescent, single point] |
| CC(=O)OCCn1c2nc(=O)[nH]c(=O)c-2nc2cc(C)c(C)cc21 | inconclusive: 2.24 µM [fluorescent, full curve] |
| O=C(/C=C1\NC2(CCCC2)Cc2ccccc21)C(=O)N/N=C/c1ccc(O)c(O)c1 | inconclusive: 20 µM [falling, single point] |
| CCN1CCN(Cc2c(O)ccc3c2O/C(=C\C=C\c2ccccc2OC)C3=O)CC1 | inconclusive: 11.2 µM [fluorescent, partial curve] |
| CCOC(=O)c1ccccc1NC(=O)c1cc(S(=O)(=O)N2CCOCC2)ccc1F | inactive |
| Cc1ccc(C(C)C)c(OCc2nn(CC(=O)c3ccc(OC(F)F)cc3)c3[n+]2CCCCC3)c1 | inconclusive: 20 µM [falling, single point] |
| COc1cc(OC)cc(-c2c(C#Cc3ccsc3)c3cc(-c4ccc(OC)c(F)c4)ccc3n2C)c1 | inconclusive: 28.2 µM [falling, single point] |
| O=C1NC(=O)/C(=C/c2ccco2)N1 | inactive |
| CC(C)(C)C1C=C(Sc2ccccc2)C(=O)O1 (stereo not given) | inconclusive: 28.2 µM [falling, single point] |
| C=CC[C@H](CC(=O)N(CCO)Cc1ccccc1)C(=O)NC[C@@H](OC(=O)[C@@H](CC=C)Cc1ccc(F)cc1)c1ccccc1 | inactive |
| C#CCOCCOCCOCCNc1nc(N2CCN(C(=O)CCCCCCCCCCNC(=O)[C@@H](CCC(=O)O)n3cc(CCCCCN)nn3)CC2)nc(N2CCN(C(=O)CCCCCCCCCCNC(=O)[C@H](CCCCN)n3cc(C[C@@H](C)CC)nn3)CC2)n1 | inconclusive: 28.2 µM [falling, single point] |
| COc1ccccc1N1CCN(c2cc(C)nc3nc(C)nn23)CC1 | inconclusive: 25.1 µM [falling, single point] |
| COc1ccc(OCC(=O)Nc2ccccc2OC)cc1 | inconclusive: 3.16 µM [falling, single point] |
| CC1CCCC(N2CCN(C(=O)c3cccc(F)c3)CC2)C1 (stereo not given) | inconclusive: 14.1 µM [falling, single point] |
| Fc1ccc(NC(=S)N2CCN(c3cccc(C(F)(F)F)c3)CC2)cc1 | inactive |
| Cc1ccc(-c2nc(N/N=C/c3ccncc3)c3ccccc3n2)cc1 | inconclusive: 11.2 µM [falling, single point] |
| Cc1c(N=C/C=C2\N(C)c3ccccc3C2(C)C)c(=O)n(-c2ccccc2)n1C | inconclusive: 28.2 µM [falling, single point] |
| CC1(C)N=C(SCC(=O)Nc2ccccc2)C(c2ccc(Cl)cc2)=N1 | inactive |

| SMILES | Potency |
| --- | --- |
| CN(C)c1ccc(/C=C(/NC(=O)c2ccccc2)C(=O)N/N=C/c2ccc([N+](=O)[O-])c(O)c2)cc1 | inconclusive: 28.2 µM [falling, single point] |
| CNC(=O)c1cc(C(=O)c2ccccc2Br)c[nH]1 | inactive |
| COCCn1nnnc1C(c1cc2cc(C)ccc2[nH]c1=O)N1CCCCCC1 (stereo not given) | inactive |
| O=[N+]([O-])c1ccc(N2N=C(c3ccco3)CC2c2ccccc2)cc1 (stereo not given) | inactive |
| NC1=NC2(CCC(c3ccccc3)CC2)n2c(nc3ccccc32)N1 (stereo not given) | inconclusive: 5.01 µM [falling, single point] |
| Cc1ccc(-c2cn3nc(-c4ccccc4)c(-c4ccccc4)nc3n2)cc1 | inconclusive: 11.2 µM [fluorescent, partial curve] |
| O=c1oc2cc(O)ccc2cc1-c1nc2c(s1)CCc1ccccc1-2 | inconclusive: 1.58 µM [fluorescent, full curve] |
| CCOc1ccc(NC(=O)C(C)NC(=O)c2ccccc2Cl)cc1S(=O)(=O)N1CCCC1 (stereo not given) | inconclusive: 14.1 µM [fluorescent, single point] |
| CCCOc1ccc(-c2nc(C#N)c(N3CCN(CC)CC3)o2)cc1 | inconclusive: 4.47 µM [falling, single point] |
| CCN1CCN(CCNC(=O)CSCc2nc(-c3ccc(OC)c(OC)c3)oc2C)CC1 | inactive |
| C=CCN1C=CC(=CC=C(C#N)C#N)C=C1 | inconclusive: 10 µM [fluorescent, partial curve] |
| CN(C)CCCNCC(=O)c1c(-c2ccccc2)n(C)c2ccccc12 | inactive |
| O=C(O)C1Nc2c(O)cc(Cl)c([N+](=O)[O-])c2C2C=CCC12 (stereo not given) | inconclusive: 14.1 µM [falling, single point] |
| CC1(C)SC(=S)N(/N=C/c2cccnc2)C1N(O)C(=O)NC1CCCCC1 (stereo not given) | inconclusive: 5.01 µM [fluorescent, single point] |
| CCN(Cc1nc2ccccc2c(=O)[nH]1)C(=O)COc1ccccc1-c1ccccc1 | inactive |
| CCC(=O)c1ccccc1OCCCn1cncn1 | inactive |
| O=C(Nn1c(SCc2ccc([N+](=O)[O-])cc2)nc2ccccc2c1=O)c1ccc(F)cc1 | inconclusive: 20 µM [falling, single point] |
| COc1cc2cc(CN(CCO)C(=O)c3cccs3)c(=O)[nH]c2cc1OC | inactive |
| O=S(=O)(c1ccccc1)N(CC1CO1)c1cc(Cl)ccc1Cl (stereo not given) | inconclusive: 22.4 µM [falling, single point] |
| CC(Oc1ccc(Cl)cc1Cl)c1ccn[nH]1 (stereo not given) | inactive |
| C#CCOCCOCCOCCNc1nc(N2CCN(C(=O)CCCCCCCCCCNC(=O)Cn3cc(CCCCCN)nn3)CC2)nc(N2CCN(C(=O)CCCCCCCCCCNC(=O)Cn3cc(CCCCCN)nn3)CC2)n1 | inconclusive: 3.98 µM [falling, full curve] |
